{"source": "PubChem BioAssay AID488895", "about": "(Broad Institute, 2010)", "note": "Screen size: about 340,000 compounds; about 120 (0.035%) were called active. This list was built around the results that the source calls inconclusive (neither active nor inactive); the mix of calls is not that of the screen.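 How the source made its calls: active means mean replicate inhibition at least 50% and at least half of replicates individually reaching 50%; inconclusive means only one of the two criteria met; inactive means neither criterion met.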", "data": [{"test": "E. coli Tat export inhibitors, primary screen, MC4100, TorA-mCherry reporter, fluorescence, single point (AID 488895);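 further: exported cargo escapes ClpAP degradation while cytoplasmic cargo is degraded and loses fluorescence; 0% = median of neutral control wells and 100% = median of NaSCN control wells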", "settings": "at 10 µM, hits give high values", "values": [{"smiles": "Nc1ncnc2c1ncn2[C@@H]1O[C@H](COP(=O)(O)OP(=O)(O)OP(=O)(O)O)[C@@H](O)[C@H]1O", "inhibition": "inactive: -3.85%"}, {"smiles": "Cc1[nH]n(C)c(=O)c1C(=O)c1c(-c2ccccc2Cl)noc1C", "inhibition": "inactive: 5.94%"}, {"smiles": "CCN(CC(=O)NCc1ccc(F)cc1)CC(=O)Nc1ccc(S(=O)(=O)N2CCCC2)cc1", "inhibition": "inconclusive: 26.9%"}, {"smiles": "COc1ccc(S(=O)(=O)N2CCC(C(=O)N3CCN(C)CC3)CC2)cc1Cl", "inhibition": "inconclusive: 27.2%"}, {"smiles": "Cc1ccc(/C=N/NC(=O)c2ccc(Cn3cc([N+](=O)[O-])cn3)o2)cc1", "inhibition": "inconclusive: 21.2%"}, {"smiles": "CCC(=O)NC(c1ccccc1Cl)c1c(O)ccc2ccccc12", "note": "(configuration not stated)", "inhibition": "inconclusive: 26.5%"}, {"smiles": "CN1/C(=C/C=C(C#N)C#N)C(C)(C)c2ccccc21", "inhibition": "inconclusive: 23.6%"}, {"smiles": "CN1C(=O)c2cccc3c(Cl)ccc(c23)C1=O", "inhibition": "inconclusive: 43.2%"}, {"smiles": "Cc1cc(=O)oc2cc(OCC(=O)OCC(=O)N3CCc4ccccc43)ccc12", "inhibition": "inconclusive: 25.1%"}, {"smiles": "O=c1[nH]c(-c2ccccn2)nc2ccccc12", "inhibition": "inconclusive: 23.7%"}, {"smiles": "COc1ccccc1N1CCN(C(=O)c2cccc(C(=O)N3CCN(c4ccccc4OC)CC3)c2)CC1", "inhibition": "inconclusive: 19.9%"}, {"smiles": "COc1ccc(NS(=O)(=O)c2ccc(NC(=O)Cc3cccs3)cc2)cc1", "inhibition": "inconclusive: 36.8%"}, {"smiles": "C=CCc1cccc(/C=N/NC(=O)CCC(=O)Nc2ccc(F)cc2)c1O", "inhibition": "inactive: 8.72%"}, {"smiles": "O=C(/C=C/Nc1ccccc1Br)c1ccccn1", "inhibition": "inconclusive: 43.3%"}, {"smiles": "CC(C)OC(=O)c1ccc(NC(=O)CSc2nc3ncccc3[nH]2)cc1", "inhibition": "inactive: -30.2%"}, {"smiles": "C=CCn1cccc(C(=O)Nc2ccc(OC)cc2)c1=O", "inhibition": "inconclusive: 27.6%"}, {"smiles": "O=C(COc1ccc2c3c(c(=O)oc2c1)CCCC3)NCCCn1ccnc1", "inhibition": "inconclusive: 32.8%"}, {"smiles": "COc1ccccc1-n1nc(C(=O)Nc2ccc3c(c2)OCO3)c2ccccc2c1=O", "inhibition": "inconclusive: 26.7%"}, {"smiles": "CN1CCc2cc3c(c4c2[C@H]1[C@H](O)c1ccccc1-4)OCO3", "inhibition": "inactive: 6.27%"}, {"smiles": "Cn1c(=O)oc2cc(S(=O)(=O)NCCN3CCCCCC3)ccc21", "inhibition": "inconclusive: 25.5%"}, {"smiles": "CCCNC(=O)c1cc(C)no1", "inhibition": "inconclusive: 37.2%"}, {"smiles": "COc1ccc(OCc2nnc3n2N=C(c2ccccc2)C(CC(=O)O)S3)cc1", "note": "(configuration not stated)", "inhibition": "inconclusive: 38.7%"}, {"smiles": "O=C(Nc1ccccc1F)C1CCN(C(=O)Cc2ccccc2)CC1", "inhibition": "inconclusive: 28.7%"}, {"smiles": "CN1CCN(C(=O)/C=C/c2ccccc2)CC1", "inhibition": "inactive: -4.95%"}, {"smiles": "CCc1cccc2c1NC(=O)C2(O)N1CCCC(C)C1", "note": "(configuration not stated)", "inhibition": "inconclusive: 32.7%"}, {"smiles": "Cc1ccc2c(Cl)cc(Cl)c(O)c2n1", "inhibition": "inconclusive: 28.6%"}, {"smiles": "CCCc1[nH]n(-c2nc3ccccc3s2)c(=O)c1C=NCCCN(CC)CC", "inhibition": "inactive: 4.14%"}, {"smiles": "COc1ccc(S(=O)(=O)N(C)C)cc1NC(=O)CSc1nnc(-c2cccnc2)o1", "inhibition": "inconclusive: 33.6%"}, {"smiles": "COc1ccc(C(=O)OC(C)CN2CCN(C)CC2)cc1", "note": "(configuration not stated)", "inhibition": "inconclusive: 33.8%"}, {"smiles": "CCOc1ccc(NC(=O)CCc2nnc3ccc(N4CCC5(CC4)OCCO5)nn23)cc1", "inhibition": "inconclusive: 31.1%"}, {"smiles": "CN(C)C(=S)Nc1ccc2ccccc2c1", "inhibition": "inconclusive: 24.4%"}, {"smiles": "O=C(NCCSc1c[nH]c2ccccc12)c1c(F)cccc1F", "inhibition": "inactive: 2.29%"}, {"smiles": "CN(C)/C=C1\\N=C(c2ccc(Cl)cc2Cl)OC1=O", "inhibition": "inactive: 0.299%"}, {"smiles": "O=C(Cc1ccc(O)cc1)N/N=C/c1cccnc1", "inhibition": "inactive: 3.92%"}, {"smiles": "CCC(=NCc1ccccc1)c1c(C(F)(F)F)[nH]n(-c2nc3ccccc3s2)c1=O", "inhibition": "inconclusive: 32.9%"}, {"smiles": "Cc1ccc(Cn2c(C)c3cnn(CC(=O)NC4CCCC4)c(=O)c3c2C)cc1", "inhibition": "inactive: -8.52%"}, {"smiles": "Cc1cnc(C(=O)OCC(=O)Nc2sc3c(c2C#N)CCC3)cn1", "inhibition": "inconclusive: 32.5%"}, {"smiles": "N#CCCn1cc(/C=N/NC(=O)c2ccncc2)c(-c2ccc(F)cc2)n1", "inhibition": "inactive: 0.513%"}, {"smiles": "COc1ccc(-n2c(Cc3cccn3C)nnc2SCC(=O)Nc2ccc(C(C)=O)cc2)cc1", "inhibition": "active: 56.4%"}, {"smiles": "Cc1c(-n2c(SCC(=O)NC(C)C(C)C)nc3ccccc3c2=O)c(=O)n(-c2ccccc2)n1C", "note": "(configuration not stated)", "inhibition": "inactive: 0.842%"}, {"smiles": "O=C(CN1CCCCC1)Nc1cc(Cl)ccc1Cl", "inhibition": "inconclusive: 26.1%"}, {"smiles": "Cc1ccc(CSc2nnc(-c3ccco3)o2)cc1", "inhibition": "inactive: 6.09%"}, {"smiles": "CC(Oc1cccnc1[N+](=O)[O-])C(=O)N1CCc2ccccc21", "note": "(configuration not stated)", "inhibition": "inconclusive: 24.8%"}, {"smiles": "C=C1c2cccc(O)c2C(=O)C2C(=O)[C@]3(O)C(=O)C(C(N)=O)C(=O)[C@@H](N(C)C)[C@@H]3[C@@H](O)[C@H]12", "note": "(some centres not stated)", "inhibition": "active: 145%"}, {"smiles": "CC(=O)NC(CC(=O)N(C)Cc1cccc(Cl)c1Cl)c1ccccc1", "note": "(configuration not stated)", "inhibition": "inactive: -7.92%"}, {"smiles": "O=C(Nc1cccc(NC(=O)c2ccco2)c1)c1ccccc1", "inhibition": "inconclusive: 29.9%"}, {"smiles": "O=C(NCc1ccco1)c1ccc([N+](=O)[O-])o1", "inhibition": "inactive: -2.37%"}, {"smiles": "O=C(CSc1ncnc2ccccc12)NCc1ccco1", "inhibition": "inconclusive: 27.8%"}, {"smiles": "On1ccccc1=S", "inhibition": "active: 142%"}, {"smiles": "O=C(NCC(=O)N(Cc1cccs1)C(C(=O)NC1CCCCC1)c1ccco1)c1cccs1", "note": "(configuration not stated)", "inhibition": "inactive: 7.02%"}, {"smiles": "COc1ccc(S(=O)(=O)N(C)c2ccc(C(=O)N3CCOCC3)cc2)cc1", "inhibition": "inconclusive: 26%"}, {"smiles": "CC(C)(C)c1ccc(C(=O)n2cnc3ccccc32)cc1", "inhibition": "inconclusive: 28.7%"}, {"smiles": "O=C(N/C(=C/c1cccc([N+](=O)[O-])c1)C(=O)N1CCOCC1)c1ccc(Br)cc1", "inhibition": "inconclusive: 27.7%"}, {"smiles": "NC(=O)c1c(NC(=O)C(=O)N2CCOCC2)sc2c1CCC2", "inhibition": "inconclusive: 37.4%"}, {"smiles": "CCN1CCCC1CNCc1ccc(Cl)cc1Cl", "note": "(configuration not stated)", "inhibition": "inactive: -10.3%"}, {"smiles": "O=C(CSc1nccn1Cc1ccccc1)NC1CCCC1", "inhibition": "inconclusive: 27.7%"}, {"smiles": "COc1ccccc1Nc1nc(C)cs1", "inhibition": "inconclusive: 28.8%"}, {"smiles": "Cc1noc(NS(=O)(=O)c2ccc(N)cc2)c1C", "inhibition": "inactive: -2.05%"}, {"smiles": "COc1ccc(NS(=O)(=O)c2cc(NC(=O)CCc3ccc(OC)c(OC)c3)ccc2N2CCOCC2)cc1", "inhibition": "inconclusive: 28.7%"}, {"smiles": "NNC(=S)Nc1ccc(OC(F)(F)F)cc1", "inhibition": "inconclusive: 26.4%"}, {"smiles": "O=C(N/N=C/c1cccc(Cl)c1Cl)Nc1ccccc1", "inhibition": "inactive: 5.68%"}, {"smiles": "Cc1nnc(SCC2=C(C(=O)O)N3C(=O)C(NC(=O)Cn4ncc(Cl)c4C)C3SC2)s1", "note": "(configuration not stated)", "inhibition": "inactive: 6.75%"}, {"smiles": "CC1(C)c2ccccc2N2CC(=O)NC21/C=C/c1ccco1", "note": "(configuration not stated)", "inhibition": "inconclusive: 28.1%"}, {"smiles": "CCCCCCCCCC[N+](C)(C)CC/C=C1/c2ccccc2Sc2ccc(Cl)cc21", "inhibition": "inconclusive: 30.2%"}, {"smiles": "Cc1ccc(NCc2nnc3n2CCCCC3)c(C)c1", "inhibition": "inconclusive: 25.6%"}, {"smiles": "CCN1/C(=C/c2ccc3ccccc3[n+]2CC)C=Cc2ccccc21", "inhibition": "inactive: -14.5%"}, {"smiles": "COc1ccc(CCNC(=O)/C=C/c2ccco2)cc1OC", "inhibition": "inconclusive: 26.3%"}, {"smiles": "COc1ccc(S(=O)(=O)N2CCC(C(N)=O)CC2)cc1", "inhibition": "inconclusive: 23.5%"}, {"smiles": "CCN1CCN(C(=O)C(NS(=O)(=O)c2ccc3nc(C)sc3c2)C(C)C)CC1", "note": "(configuration not stated)", "inhibition": "inconclusive: 28.7%"}, {"smiles": "O=C(O)c1ccc(N/N=C/c2ccc(-c3ccccc3)cc2)cc1", "inhibition": "inconclusive: 29.5%"}, {"smiles": "CC(=O)Nc1sc(NC(=O)c2ccccc2)nc1-c1cccs1", "inhibition": "inconclusive: 31.3%"}, {"smiles": "Cc1onc(-c2c(F)cccc2Cl)c1C(=O)Nc1sc2c(c1C#N)CCC(C(C)(C)C)C2", "note": "(configuration not stated)", "inhibition": "inconclusive: 30.3%"}, {"smiles": "CC(C)(C)OC(=O)N1CCCC(C(=O)Nc2cccc(C(=O)NCCc3ccccc3)c2)C1", "note": "(configuration not stated)", "inhibition": "inconclusive: 43%"}, {"smiles": "CC(=O)Nc1ccc(NS(=O)(=O)c2ccc3ccccc3c2)cc1", "inhibition": "inconclusive: 37.9%"}, {"smiles": "CC(C)(C#N)NC(=O)C1CCCN1S(=O)(=O)c1ccc2ccccc2c1", "note": "(configuration not stated)", "inhibition": "inconclusive: 42.3%"}, {"smiles": "Cc1ccc(C(=O)Nc2nnc(-c3ccco3)o2)cc1C", "inhibition": "inactive: -3.29%"}, {"smiles": "OCCN1CCN(C(=S)Nc2ccc(Oc3ccccc3)cc2)CC1", "inhibition": "inconclusive: 23.6%"}, {"smiles": "Cc1ccc(C(=O)CSc2nc(N)cc(=O)[nH]2)cc1", "inhibition": "inactive: 13.3%"}, {"smiles": "Cc1cc(=O)n(-c2ccc(O)cc2)[nH]1", "inhibition": "inactive: -3.36%"}, {"smiles": "O=C(CSC1=NCCN1)NC12CC3CC(CC(C3)C1)C2", "inhibition": "inconclusive: 30.6%"}, {"smiles": "CCOC(=O)c1c2c3c(c(Cl)ccc3[nH]c1=O)C(=O)c1ccccc1-2", "inhibition": "inconclusive: 27.2%"}, {"smiles": "O=C(COC(=O)C12CC3CC(CC(Br)(C3)C1)C2)Nc1cccnc1Cl", "inhibition": "inconclusive: 28.4%"}, {"smiles": "O=C1CN(C(=O)COC(=O)c2cc(S(=O)(=O)N3CCOCC3)ccc2Cl)c2ccccc2N1", "inhibition": "inconclusive: 25.1%"}, {"smiles": "C/C(CC(=O)Nc1cc(C)ccn1)=N\\NC(=O)c1cccc(C)c1", "inhibition": "inactive: 0.076%"}, {"smiles": "CC(Cc1cccnc1)NC(=O)c1cc(COc2c(F)cccc2F)on1", "note": "(configuration not stated)", "inhibition": "inactive: 1.28%"}, {"smiles": "Cc1cc(-n2c(C)cc(C(=O)COc3cccnc3[N+](=O)[O-])c2C)no1", "inhibition": "inconclusive: 31.8%"}, {"smiles": "O=C(NCC1CCCO1)C1CCCN(S(=O)(=O)c2ccc(F)cc2)C1", "note": "(configuration not stated)", "inhibition": "inconclusive: 31.7%"}, {"smiles": "CC[n+]1c(C=C2C=C(C)OC(C)=C2)sc2ccccc21", "inhibition": "inactive: 3.45%"}, {"smiles": "CC1CCc2cc(F)cc3c(=O)c(C(=O)O)cn1c23", "note": "(configuration not stated)", "inhibition": "active: 56.2%"}, {"smiles": "Cc1[nH]c2ccccc2c1Cc1nnc(SCC(=O)NCc2ccco2)o1", "inhibition": "inconclusive: 19.2%"}, {"smiles": "COC(=O)C1CCN(CC(N)=O)CC1", "inhibition": "inactive: -3.53%"}, {"smiles": "COc1ccc(C2OC(=O)CC2C(=O)NCc2ccc(F)cc2)cc1OC", "note": "(configuration not stated)", "inhibition": "inconclusive: 25%"}]}]}
